In all, about 18,000 sequences were measured (“TetR repression strength (sort-seq, GFP reporter)”: median about 0.23, highest 2% from about 0.68 on). The list shows a part of the results.

UniProt P04483, sequence (P04483 whole entry): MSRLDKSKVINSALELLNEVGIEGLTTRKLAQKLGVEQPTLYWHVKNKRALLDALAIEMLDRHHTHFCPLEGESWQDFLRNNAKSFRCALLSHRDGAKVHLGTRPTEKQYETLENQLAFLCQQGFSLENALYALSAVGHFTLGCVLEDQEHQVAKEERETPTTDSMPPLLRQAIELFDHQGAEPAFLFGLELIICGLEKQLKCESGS

The assay has as its target TetR (class B, Tn10) (UniProt P04483). The assay is described as follows: TetR repression strength (sort-seq, GFP reporter) (relative to tetO2 = 1); higher = stronger repression. The conditions noted are these: E. coli. The essentials:
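Repression strength was calculated by subtracting the read-weighted mean bin from the top bin index plus one and dividing by the unaltered operator's value. The plasmid library was low-copy in E. coli SIG10-MAX, with eight randomized operator positions between a constitutive promoter and sfGFP and constitutive TetR. Cultures grew 5 h at 37 °C in LB containing 50 µg/mL chloramphenicol before 10^6 cells were sorted by FACS into 13 fluorescence bins, each sequenced on Illumina. Three independent transformations were averaged for members having ≥30 reads in all replicates and a CV ≤0.5.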
TCCCCCGAAGTGCGCGAGA returned a TetR repression strength of 0.123. With TCCCCAAGAGTACAAGAGA, the TetR repression strength amounted to 0.259. In turn, TCCCCTTGAGTCCTTGAGA yielded a TetR repression strength of 0.326.

In turn, TCCCCGTTAGTGACTGAGA registered a TetR repression strength of 0.398. In the case of TCCCCCGAAGTAACCGAGA it was 0.221. With TCCCTACTAGTACGGGAGA the figure was 0.394; with TCCCGTTTAGTCACGGAGA, 0.025; with TCCCCCAAAGTGAAGGAGA, 0.104. With TCCCGTATAGTTCTCGAGA the figure was 0.104; with TCCCGCACAGTCGGTGAGA, 0.295.

As for TCCCACTCAGTGGAAGAGA, the TetR repression strength is 0.283. TCCCCTAAAGTTAACGAGA: the TetR repression strength came to 0.104. The sequence TCCCTACTAGTGTCGGAGA had a TetR repression strength of 0.24.

Regarding TCCCAGCCAGTTGTGGAGA, the TetR repression strength amounted to 0.243. With TCCCCTAAAGTAGATGAGA the figure was 0.0432; with TCCCCACTAGTGACTGAGA, 0.244. In the case of TCCCGCAGAGTTATGGAGA, the TetR repression strength was found to be 0.128. With TCCCTTGTAGTTATGGAGA the figure was 0.504; with TCCCCGGAAGTTGCGGAGA, 0.0399.

Consider TCCCATCTAGTTCAAGAGA, for which the TetR repression strength turned out to be 0.465.

TCCCAGGAAGTGTGCGAGA registered a TetR repression strength of 0.181.

TCCCCTGAAGTATTTGAGA: the TetR repression strength turned out to be 0.307. Take TCCCTAAGAGTGCTTGAGA: the TetR repression strength was found to be 0.525.

The sequence TCCCGTGTAGTAAGTGAGA displayed a TetR repression strength of 0.313. Consider TCCCCGATAGTGTGCGAGA, for which the TetR repression strength came to 0.501. On to TCCCGGTGAGTGAAAGAGA, for which the TetR repression strength was 0.347.

Sequence TCCCTTTGAGTGGCCGAGA displayed a TetR repression strength of 0.0935. In the case of TCCCACGGAGTGGAGGAGA it was 0.263; in that of TCCCGATCAGTTATTGAGA, 0.603; in that of TCCCCAGTAGTTAGGGAGA, 0.28. With TCCCTTGGAGTAAGCGAGA the figure was 0.233; with TCCCTTAAAGTTCCTGAGA, 0.461. As to TCCCGGGTAGTGAGTGAGA, the TetR repression strength was 0.242. With TCCCCGGCAGTGGTGGAGA the figure was 0.25; with TCCCGCTGAGTTTCGGAGA, 0.0874; with TCCCCTCGAGTGAAAGAGA, 0.319. For the sequence TCCCCTGAAGTTCTGGAGA, the TetR repression strength was found to be 0.237. As for TCCCTCGGAGTGCACGAGA, the TetR repression strength amounted to 0.185. Sequence TCCCATTCAGTTACGGAGA came in with a TetR repression strength of 0.254. With TCCCAACGAGTAGAGGAGA the figure was 0.259. Take TCCCCAGTAGTCCGGGAGA: the TetR repression strength was 0.162. The sequence TCCCCACGAGTCTATGAGA had a TetR repression strength of 0.333. In turn, TCCCAAGCAGTGCGAGAGA came in with a TetR repression strength of 0.221. Regarding TCCCAACTAGTCGACGAGA, the TetR repression strength came to 0.701.

TCCCGGGCAGTTGTCGAGA came in with a TetR repression strength of 0.325.

Regarding TCCCTAACAGTGGTCGAGA, the TetR repression strength was found to be 0.518. In the case of TCCCAATGAGTGGCAGAGA it was 0.312; in that of TCCCGAGCAGTGAAGGAGA, 0.233; in that of TCCCAACGAGTTAGGGAGA, 0.145. TCCCATGCAGTATACGAGA returned a TetR repression strength of 0.228. With TCCCCTAGAGTATTCGAGA the figure was 0.207; with TCCCTGCTAGTAAACGAGA, 0.389. In the case of TCCCCGAAAGTCCATGAGA, the TetR repression strength is 0.223. The sequence TCCCTCAAAGTAGGCGAGA had a TetR repression strength of 0.112. In the case of TCCCGGGGAGTGCTGGAGA it was 0.359. In the case of TCCCCGTCAGTCGCCGAGA it was 0.174; in that of TCCCCGCGAGTGTACGAGA, 0.225. With TCCCAAAGAGTGGGGGAGA the figure was 0.217; with TCCCGGGGAGTAGCGGAGA, 0.0598; with TCCCAAACAGTGACAGAGA, 0.622. The sequence TCCCGGCAAGTGGTTGAGA returned a TetR repression strength of 0.452.

With TCCCCGGCAGTTCGCGAGA, the TetR repression strength was determined as 0. In the case of TCCCCGTTAGTTTAGGAGA it was 0.104; in that of TCCCTGCTAGTCCGTGAGA, 0.401; in that of TCCCGGCTAGTTCGAGAGA, 0.282. In the case of TCCCCGTTAGTGTCGGAGA it was 0.137; in that of TCCCCGCTAGTCAGTGAGA, 0.107. With TCCCCAGGAGTGATAGAGA the figure was 0.339. TCCCATAGAGTTTGGGAGA displayed a TetR repression strength of 0.127.

Sequence TCCCTCTGAGTAGAAGAGA had a TetR repression strength of 0.206.

In turn, TCCCATGCAGTGCTCGAGA gave a TetR repression strength of 0.218. In the case of TCCCCCTTAGTAGGCGAGA it was 0.156; in that of TCCCGCGCAGTGGGTGAGA, 0.184.

In the case of TCCCAAGCAGTGCCGGAGA, the TetR repression strength was found to be 0.228.

TCCCACGTAGTACCCGAGA showed a TetR repression strength of 0.104. In the case of TCCCCGTCAGTAGGTGAGA it was 0.402; in that of TCCCTCAGAGTGTTGGAGA, 0.0939. With TCCCTGGAAGTCCGGGAGA the figure was 0.209. In turn, TCCCCTTTAGTCGCGGAGA had a TetR repression strength of 0.193.

Take TCCCAACAAGTTTAAGAGA: the TetR repression strength was found to be 0.41. With TCCCCCTAAGTTGCAGAGA the figure was 0.227. The sequence TCCCGCAGAGTCTGGGAGA returned a TetR repression strength of 0.165.

Take TCCCCGGGAGTTGGGGAGA: the TetR repression strength is 0.184. On to TCCCGAAGAGTGACAGAGA, for which the TetR repression strength stood at 0.47.

For TCCCTGGCAGTTTTCGAGA, the TetR repression strength amounted to 0.218. Turning to TCCCGTGAAGTGACTGAGA, the TetR repression strength turned out to be 0.272.

Sequence TCCCTTCCAGTTCTTGAGA displayed a TetR repression strength of 0.472. In the case of TCCCGTCCAGTGGTGGAGA it was 0.19; in that of TCCCGGGAAGTTTTAGAGA, 0.168. With TCCCCCTTAGTGATTGAGA the figure was 0.257; with TCCCTTTCAGTGAACGAGA, 0.513. In turn, TCCCTAGAAGTGAGAGAGA returned a TetR repression strength of 0.0353. With TCCCCATTAGTACAAGAGA the figure was 0.339; with TCCCATACAGTCACCGAGA, 0.424; with TCCCGGATAGTCGGTGAGA, 0.167. With TCCCTACCAGTAAGAGAGA the figure was 0.245; with TCCCCGCGAGTGCAGGAGA, 0.268; with TCCCGCGAAGTTGCGGAGA, 0.122.

The sequence TCCCGCTCAGTATGTGAGA had a TetR repression strength of 0.453. In the case of TCCCCCGGAGTCGATGAGA it was 0.188; in that of TCCCCGGTAGTGCGTGAGA, 0.357; in that of TCCCGTCGAGTGTGAGAGA, 0.186.

The values above are taken from a collection of fitness landscapes (doi:10.1038/s41467-024-54723-y).
